B1: LINE1-mini (parent)
chain: GGCAGAGCUCAACACAGCGUGGCAAAGUGGCUGUGGCUAGACUGCC

Read counts are not given, so values of variants with three or more changes are uncertain.

Variants of B1 are the subject of the data set. The data set is described as follows: self-cleavage, relative activity (ratio to wild type); higher = more cleavage; in vitro, sequencing; the parent is a self-cleaving ribozyme.
Turning to C8U G17U C45U, the self-cleavage is 0.09.

Regarding C8U C23U G35A G36A G44A, the self-cleavage turned out to be 0.53.

With C8U C18U U32G, the self-cleavage was 0.02.

Consider U9A C10U A14U G30U, for which the self-cleavage came out at 0.01.

With C8U A16C G27C G35A, the self-cleavage was determined as 0.29.

As for C8G U9G G17A G30A U32G C37U, the self-cleavage was 0.02.

On to C8U G29U C31U, for which the self-cleavage worked out at 0.07.

Turning to C8G G27U G33A G35C C37U U43G, the self-cleavage was 0.02.

For U9A A16U C37U, the self-cleavage was 0.05.

In the case of C8U G35C G36A, the self-cleavage worked out at 0.1.

For C8U G17A A25C C42U, the self-cleavage worked out at 0.05.

Regarding U9A C15A A41C, the self-cleavage came out at 0.07.

For U9A C23U G27C U34G G35A, the self-cleavage was 0.14.

For the variant C8U A14C A25C C31G, the self-cleavage was 0.06.

With U9A C15U U28G, the self-cleavage was 0.36.

Consider U9A A16C U32A, for which the self-cleavage turned out to be 0.04.

As for U9A C15A G30C, the self-cleavage was 0.08.

On to U9A C10A C45A, for which the self-cleavage was 0.03.

With C8U A12G G22U U34G, the self-cleavage worked out at 0.11.

As for U9A A12U G21U U34A, the self-cleavage is 0.07.

Turning to U9A C10G U28A A41U, the self-cleavage came out at 0.02.

On to U9A A12U A24G U28A, for which the self-cleavage was found to be 0.12.

For C8U U28C G29U G44A, the self-cleavage worked out at 0.06.

On to C8U A11U G36C C42U, for which the self-cleavage stood at 0.02.

Consider C8U U9A C13U A14U G19A U28A U32C C46G, for which the self-cleavage is 0.46.

U9A A11G G29A C46G: the self-cleavage was 0.02.

For C8G G22A G40A C45U, the self-cleavage turned out to be 0.04.

Take C8U A11U U43C: the self-cleavage was 0.02.

As to C8U C31G A41C, the self-cleavage was determined as 0.08.

C8U A14U U28A C37A: the self-cleavage was found to be 0.2.

Consider C8U C10G U20G U28G U38G A39G, for which the self-cleavage turned out to be 0.

For the variant C8U C18A G33U, the self-cleavage was 0.

For C8U C23U U34G G35C G44C, the self-cleavage was 0.03.

For C8U A25C A41G, the self-cleavage was 0.44.

For C8U U9A C46A, the self-cleavage came to 0.16.

Take U9A G30C U38G: the self-cleavage turned out to be 0.02.

In the case of C8U G40A C45U, the self-cleavage worked out at 0.44.

Turning to U9A U28C C37U G40A C46G, the self-cleavage is 1.02.

Turning to C8G U9G G44U, the self-cleavage came to 0.08.

With C8U G21U C23G, the self-cleavage was 0.12.

Take U9A A24U G30U: the self-cleavage was 0.08.

Turning to U9A A24U G30A, the self-cleavage came out at 0.15.

On to C8U A11U G40C C45G, for which the self-cleavage turned out to be 0.04.

Turning to C8U A16G C31A G33A C37U, the self-cleavage came out at 0.28.

As to C8U A16G A41C, the self-cleavage worked out at 0.03.

Consider C8U C10A U38A, for which the self-cleavage came to 0.02.

In the case of C8U A12U C15U C18A G22U G40C, the self-cleavage amounted to 0.08.

Regarding U9C A11U A26G, the self-cleavage is 0.06.

As to C8U G17U C18A G21U G22U C37A U43A G44C, the self-cleavage is 0.

With C8U A11G A26C C31U, the self-cleavage worked out at 0.02.

In the case of C8U C15A G17C U20C G30U U34A, the self-cleavage is 0.2.

For C8G U9A C18A, the self-cleavage was 0.02.

Consider C8U G17A A41U, for which the self-cleavage came out at 0.02.

C8G G22A A39C: the self-cleavage is 0.03.

As for U9A A24U G44C, the self-cleavage stood at 0.05.

On to C8G U32G A41U, for which the self-cleavage turned out to be 0.05.

With U9C A11C G19U C46A, the self-cleavage is 0.06.

Turning to C8U U20G G22A, the self-cleavage is 0.07.

U9A C18A G21A: the self-cleavage came to 0.1.

For C8U C13A G22A, the self-cleavage came to 0.25.

In the case of U9A A16G C23U A24U A25C U34G, the self-cleavage worked out at 0.06.

U9A A16C A26C: the self-cleavage turned out to be 0.07.

Consider U9A U38G C42G, for which the self-cleavage was determined as 0.03.

With U9A A12C G19A A26C G30U, the self-cleavage turned out to be 0.02.

For the variant C8U C10A G29A, the self-cleavage turned out to be 0.04.

Consider C8U A14C C31A U38C C45G, for which the self-cleavage was determined as 0.11.

For U9A A12G G27U G35A G44C, the self-cleavage turned out to be 0.02.

Take C8G U34G C46A: the self-cleavage is 0.05.

As for U9A C15G C31U G33U, the self-cleavage came out at 0.22.

As to C8U G29A A41U, the self-cleavage is 0.06.

U9A C13A U20C G44C: the self-cleavage came to 0.

On to U9A A14U A16G G30U, for which the self-cleavage was determined as 0.14.

Regarding U9A A16C G17A C23G G29A, the self-cleavage was 0.14.

As to C8U C13U G21U G30C, the self-cleavage is 0.16.

Turning to C8U C18U C46U, the self-cleavage turned out to be 0.11.

For C8G G22C G44U, the self-cleavage was determined as 0.02.

Take C8U C15G C37U A39C: the self-cleavage is 0.21.

Take U9A G29C G36A U43G C45U: the self-cleavage was found to be 0.05.

Consider C8U G27A C31U A39C, for which the self-cleavage was found to be 0.1.

With U9A G19A A39C G40U C45G, the self-cleavage is 0.02.

For C8U U9A A41U C46A, the self-cleavage turned out to be 0.11.

With C8U C10A U34A, the self-cleavage is 0.08.

As for C8U G27U G40U, the self-cleavage is 0.53.

Take C8G G22A U32A A39G A41G: the self-cleavage is 0.01.

For C8U A11U A16U, the self-cleavage came to 0.

As for U9C A11G A41U, the self-cleavage was 0.01.

C8U A12G A26G: the self-cleavage amounted to 0.28.

On to C8U G17A G21U G36A A39G, for which the self-cleavage worked out at 0.02.

Take C8U U9A A16G U32G: the self-cleavage amounted to 0.33.

On to C8U G19A G44C, for which the self-cleavage came out at 0.06.

For U9A C18G G44U C46A, the self-cleavage came out at 0.02.

Turning to U9A G22C U38C, the self-cleavage worked out at 0.24.

With C8U C13G A14G U32C, the self-cleavage is 0.01.

Consider C8U U28G C31G G44C, for which the self-cleavage came to 0.01.

Consider U9A A11G A24G C37U C46U, for which the self-cleavage is 0.01.

Regarding C8U A11U A26U, the self-cleavage was 0.03.

As for C8G U9G C15U G44A, the self-cleavage amounted to 0.07.

On to C8U C18G G30A, for which the self-cleavage amounted to 0.09.

Consider U9A G17C U20A U34A G40A, for which the self-cleavage came out at 0.08.

Take C8U C15G G35C: the self-cleavage stood at 0.09.

With U9C A11G U28G, the self-cleavage was found to be 0.04.

For the variant C8U C18G C37U U38C G40A, the self-cleavage amounted to 0.01.

On to U9A A14U C15A U34A G36C G40U, for which the self-cleavage was 1.08.

As to U9A G27A G35A, the self-cleavage was found to be 0.42.

Regarding U9A C10G C18U G40A, the self-cleavage amounted to 0.

Take U9A U20A G29A G30A: the self-cleavage turned out to be 0.06.

Turning to C8U U9A G22A, the self-cleavage stood at 0.03.

For the variant C8U A11C C37U, the self-cleavage is 0.02.

On to U9A G22C G33A G44C, for which the self-cleavage is 0.05.

Regarding U9A G21C U28G U38C, the self-cleavage came to 0.01.

For the variant C8U A16C G44C, the self-cleavage was determined as 0.12.

As for U9A U20G G33U G35U, the self-cleavage amounted to 0.17.

Turning to C8U G35U G36C, the self-cleavage came out at 0.58.

Consider U9A G27U U34A G40U, for which the self-cleavage worked out at 0.05.

As for C8U U28C C37G A41U, the self-cleavage came out at 0.

As to U9A G36U U38G G40A, the self-cleavage amounted to 0.02.

As for U9A G21C A25C, the self-cleavage was determined as 0.21.

Regarding U9A G19C A41U C45U, the self-cleavage was found to be 0.07.

As to C8U G35C G40U, the self-cleavage turned out to be 0.04.

Take C8U U20G A26C: the self-cleavage was 0.05.

U9A G36A C37A U38A C45U C46U: the self-cleavage was found to be 0.56.

Take U9A C15G G22U U28A C42A: the self-cleavage stood at 0.03.

Turning to U9A C15A U20A, the self-cleavage came to 0.21.

As for U9A U20C A39C, the self-cleavage stood at 0.02.

In the case of C8U C18G G22U, the self-cleavage turned out to be 0.23.

For the variant U9C A11G G27A G35C C46A, the self-cleavage is 0.02.

Take C8G G29A A39C: the self-cleavage came to 0.12.

C8U C18A U20A: the self-cleavage came to 0.54.

With C8U A12G C23U C45U, the self-cleavage was found to be 0.07.

In the case of C8U A11C A24G, the self-cleavage is 0.02.

C8U A14G A16C U32C: the self-cleavage amounted to 0.02.

Consider C8U C18A G44U, for which the self-cleavage is 0.05.

On to C8U A11U C13U C45G, for which the self-cleavage amounted to 0.01.

On to U9A U28A G40C, for which the self-cleavage was found to be 0.03.

As for C8U G27C C31U G35U, the self-cleavage was determined as 0.05.

With C8G G30A C31U, the self-cleavage stood at 0.02.

For C8U A12U A25G G27A, the self-cleavage amounted to 0.11.

On to C8U A26U G29C C31U C42G, for which the self-cleavage stood at 0.16.

For the variant U9C A16G U20C G29A, the self-cleavage amounted to 0.01.

U9A C15A G22A: the self-cleavage was 0.1.

On to C8G U9A A24C C42G, for which the self-cleavage was found to be 0.11.

C8U C13A G22U A41C: the self-cleavage was 0.14.

For U9C A11U U20G U32A A41C, the self-cleavage is 0.

Consider C8U G40C C45G C46A, for which the self-cleavage stood at 0.23.

Take U9C A11G A26G G35C U38C C42G: the self-cleavage was found to be 0.

As for C8U U9A A12C C31A, the self-cleavage came to 0.05.

As for C8U U20C A25G G27U G35A, the self-cleavage turned out to be 0.22.

As to C8U C10G A24U G35C, the self-cleavage is 0.01.

Consider U9C A11U G36U C46A, for which the self-cleavage is 0.01.

C8G G44U C45G: the self-cleavage was found to be 0.06.

As for C8U A11G C15A G27C C45U, the self-cleavage turned out to be 0.03.

In the case of C8U A26G A39C A41C, the self-cleavage stood at 0.04.

For C8U A26U U34C, the self-cleavage is 0.11.

As to U9A C10A G35A A41U G44A, the self-cleavage stood at 0.03.

In the case of C8U G17U U34A, the self-cleavage was 0.42.

Turning to C8U C31A C37A, the self-cleavage is 0.2.

For the variant C8U G17U A25U A41C, the self-cleavage was 0.11.

In the case of C8U C10U A12C C37G, the self-cleavage worked out at 0.

As for C8U C15A C42G, the self-cleavage is 0.04.

On to C8U G22C C37U, for which the self-cleavage is 0.06.

As for C8G G33A G35C, the self-cleavage is 0.06.

Regarding C8G G29A C46A, the self-cleavage turned out to be 0.22.

For the variant U9A A11U C13A C23G G36A C37U C45U, the self-cleavage came out at 0.02.

For C8U C15U G22C G30C U38A, the self-cleavage worked out at 0.13.

For U9A A11G G21U A24C, the self-cleavage was 0.01.

In the case of C8G U9G G19U G27U U28G U38G, the self-cleavage is 0.02.

As to C8U U9G A11C A12U C15U, the self-cleavage was found to be 0.01.

For the origin of these results see the RNAGym collection of RNA variant scans (doi:10.7554/elife.90254).
